# According to article PMC4336329 (PLoS ONE, 2015):
# Out of some 310,000 compounds screened, about 14,000 (4.5%) showed an effect of 50% or more. Effects have a minus sign here. Some of the results follow.
# Molecular target: human ether-à-go-go-related gene (hERG) potassium channel (human, UniProt Q12809)
# Assay: primary screen, population patch clamp on CHO cells stably expressing hERG
# 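Further: peak tail current of the secondary pulse compared with the same well before compound.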
# Chain of human ether-à-go-go-related gene (hERG) potassium channel (Q12809 whole entry, looked up): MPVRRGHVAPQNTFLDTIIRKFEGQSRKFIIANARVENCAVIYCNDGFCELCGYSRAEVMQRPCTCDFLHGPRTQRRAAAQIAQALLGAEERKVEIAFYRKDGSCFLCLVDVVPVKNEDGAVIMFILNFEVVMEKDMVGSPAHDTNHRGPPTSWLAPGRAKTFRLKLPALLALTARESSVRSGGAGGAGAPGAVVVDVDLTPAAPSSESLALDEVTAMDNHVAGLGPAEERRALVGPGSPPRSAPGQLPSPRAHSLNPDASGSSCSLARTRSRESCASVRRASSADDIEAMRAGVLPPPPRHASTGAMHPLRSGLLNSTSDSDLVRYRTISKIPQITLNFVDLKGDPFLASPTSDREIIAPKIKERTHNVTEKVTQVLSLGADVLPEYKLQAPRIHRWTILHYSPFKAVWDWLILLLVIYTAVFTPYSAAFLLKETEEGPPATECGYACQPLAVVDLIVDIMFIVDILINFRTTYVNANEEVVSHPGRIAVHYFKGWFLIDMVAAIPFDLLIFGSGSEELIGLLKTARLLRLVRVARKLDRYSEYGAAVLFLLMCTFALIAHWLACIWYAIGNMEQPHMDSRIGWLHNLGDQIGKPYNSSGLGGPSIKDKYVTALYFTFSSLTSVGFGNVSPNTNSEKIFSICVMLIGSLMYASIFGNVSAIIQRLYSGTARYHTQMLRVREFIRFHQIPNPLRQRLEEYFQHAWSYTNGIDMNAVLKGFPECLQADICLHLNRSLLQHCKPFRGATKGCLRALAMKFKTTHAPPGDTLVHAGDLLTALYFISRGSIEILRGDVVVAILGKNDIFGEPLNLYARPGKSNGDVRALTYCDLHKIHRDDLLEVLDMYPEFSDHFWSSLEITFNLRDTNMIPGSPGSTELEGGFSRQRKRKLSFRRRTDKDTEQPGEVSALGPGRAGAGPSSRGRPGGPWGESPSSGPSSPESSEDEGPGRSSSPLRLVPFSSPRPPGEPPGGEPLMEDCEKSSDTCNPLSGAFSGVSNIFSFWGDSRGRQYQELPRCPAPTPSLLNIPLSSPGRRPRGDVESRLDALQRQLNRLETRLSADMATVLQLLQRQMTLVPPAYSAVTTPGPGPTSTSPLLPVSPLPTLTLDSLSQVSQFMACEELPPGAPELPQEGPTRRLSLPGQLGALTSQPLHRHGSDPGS
row,Structure (SMILES),"hERG current change (%, negative = inhibition) at 10uM"
1,CN1CCN(CC(=O)Nc2cc(S(=O)(=O)N3CCOCC3)ccc2Cl)CC1,4.13%
2,COc1ccc(C(=O)C2CCCN(C(=O)c3n[nH]c4c3CCCC4)C2)cc1OC (centres unmarked),7.34%
3,Cc1cc(C)c(N(C(=O)c2csnn2)C(C(=O)NC2CCCC2)c2ccncc2)c(C)c1 (centres unmarked),-3.14%
4,CC1CC(C)CN(C(=O)Cc2c(C(=O)O)[nH]c3ccc(Cl)cc23)C1 (centres unmarked),-11.1%
5,CCCN(Cc1nnc(-c2ccccc2Cl)o1)C(=O)c1cccc(S(=O)(=O)N2CCOCC2)c1,-6.05%
6,Cc1sc(-n2cccc2)c(C(=O)O)c1C,8.6%
7,CC1(c2ccccc2Cl)NC(=O)N(CC(=O)NC(=O)NCc2ccco2)C1=O (centres unmarked),-8.53%
8,CCCCNC(=O)C1CCC(CNS(=O)(=O)c2c(C)cc(C)cc2C)CC1 (centres unmarked),3.09%
9,Cc1ccc(SCCC(=O)NCc2ccncc2)cc1,-61.9%
10,CC(=O)Oc1ccc2ccccc2c1C(NC(=O)Cc1ccccc1)c1ccccc1Cl (centres unmarked),7.9%
11,CC[N+](C)(CC)CC(=O)OCC1C(C)C=C(C)CC1C.[I-] (centres unmarked),13.3%
12,Cc1ccccc1N(CC(=O)NC1CCCCC1)C(=O)CCCC(=O)Nc1ccccn1,-4.16%
13,O=C(CSc1nncn1-c1ccccn1)Nc1ccccc1Cl,4.16%
14,C#CCOCCOCCOCCNc1nc(N2CCN(C(=O)[C@H]([C@@H](C)CC)n3cc(CCC[NH+]=C(N)N)nn3)CC2)nc(N2CCN(C(=O)[C@H](Cc3ccc(O)cc3)n3cc(CCO)nn3)CC2)n1.[Cl-],29.5%
15,O=C(O)CCN1C(=O)c2ccc(NC(=O)CSc3ccccc3)cc2C1=O,4.22%
16,CCc1ccc(N2CC(C(=O)Nc3cccc(C(=O)NC4CC4)c3)CC2=O)cc1 (centres unmarked),10.6%
17,COc1cc(OC)cc(C(=O)NCCCCc2ccccc2)c1,-56%
18,CCCCC(=O)OCCNC(=O)c1cc2ccccc2oc1=O,8.23%
19,CN1CCN(c2nccc3c2ncn3C)CC1.Cl,5.13%
20,CCNC(=O)COc1ncnc2scc(-c3ccc(F)cc3)c12,-12%
21,O=C(O)CCC(=O)Nc1cccc2cccnc12,32.3%
22,CC(C)(C)c1ccc(C(=O)NNC(=O)c2ccncc2)cc1,15.5%

row,Structure (SMILES),"hERG current change (%, negative = inhibition) at 10uM"
1,CC(=O)Oc1ccc(N(C(C)=O)S(=O)(=O)c2ccc(Cl)cc2)c2ccccc12,1.86%
2,O=C(Nc1nnc(S(=O)(=O)N2CCOCC2)s1)c1cccc(F)c1,16.6%
3,Cc1cccc(NC(=S)N(CCCN2CCOCC2)Cc2ccccn2)c1,-22.3%
4,COC(=O)C1=C(O)CSC1=Nc1cccc(C(F)(F)F)c1,-26.2%
5,O=C(CN1C(=O)CCSc2ccccc21)Nc1ccc2c(c1)OCCO2,0.514%
6,Cc1cc(C)nc(NC(=O)C(c2ccccc2)c2ccccc2)n1,4.18%
7,O=C(O)C1Cc2ccccc2-c2ccccc2C1,20.1%
8,O=C(CCCOc1ccc(Cl)cc1Cl)N/N=C/c1ccccc1,6.94%
9,COc1ccc(NC(=O)CCS(=O)(=O)c2ccc3c(c2)CCCN3C(C)=O)cc1,9.92%
10,O=C(CC1C(=O)NCCN1Cc1ccc(-c2ccccc2)cc1)NCCCn1cccn1 (centres unmarked),-8.84%
11,CCOC(=O)C1CCCN(C(=O)c2cc(Nc3ccc(OC)cc3OC)nc3ccccc23)C1 (centres unmarked),-17.2%
12,CCCCNc1ccc2nsnc2c1[N+](=O)[O-],-18.8%
13,C[n+]1ccc(/C=C/c2c[nH]c3ccc(F)cc23)cc1.[I-],-18.5%
14,Cc1c(N(C(=O)c2ccccn2)C2(C(=O)NC3CCCCC3)CCCCC2)c(=O)n(-c2ccccc2)n1C,-23.1%
15,O=c1cc(-c2ccccc2Cl)oc2c(NS(=O)(=O)c3ccccc3OC(F)(F)F)ccc(O)c12,0.267%
16,CCOC(=O)c1c(NC(=O)C2CC(Cl)=CCC2C(=O)O)sc2c1CC(C)(C)OC2 (centres unmarked),29.2%
17,Oc1c(C(Nc2ccccn2)c2ccccn2)ccc2cccnc12 (centres unmarked),-36.8%
18,CCc1ccc(Nc2ncccc2C#N)cc1,0.479%
19,Cn1c(=O)c2c(nc(CN3CCN(c4ccccc4)CC3)n2CCCc2ccccc2)n(C)c1=O,-32.7%
20,CC1(C)CC(=O)C2=C(C1)OC(N)=C(C#N)C2c1ccc[nH]1 (centres unmarked),11.7%
21,CC(C)NC(=O)COc1ccccc1C#N,10.8%
22,O=C(Nc1ccc2sccc2c1)c1ccc(Cl)s1,10%
